# Data from the RNAGym collection of RNA variant scans (doi:10.1093/nar/gkz1192).
# The source gives no read counts; variants with many changes may rest on few reads.
# B1: CPEB3 Ribozyme (parent)
# chain: UAACAGGGGGCCACAGCAGAAGCGUUCACGUCGCAGCCCCUGUCAGAUUCUGGUGAAUCUGCGAAUUCUGCUGUAUAUCUC
# Variants of: B1
# Assay: self-cleavage, relative activity (ratio to wild type); higher = more cleavage; in vitro, sequencing
# Method in brief: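 After error-prone PCR and barcoding, CPEB3 ribozyme mutant libraries were transcribed with T7 RNA polymerase at 37°C for 5 hours, then given 15 min with DNase I before an EDTA stop, and they cleaved during both steps. Reverse transcription with template switching preceded Illumina sequencing. Relative activity divides a variant's cleaved/total read fraction by the unmutated ribozyme's. At least 5 reads were required per variant, and three batches were averaged.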
row,Variant,self-cleavage
1,A18U G33A U43A U54A A56U A57G,0.13
2,A18U C23A A35G U49A U58A U72A,0.05
3,A18U A35U U41C U66C,0.15
4,A18U C62G A64G U78C,0.18
5,A18U A45U U54C G63A U69C,0.2
6,A18U U26A A77U,0.28
7,A18U C27A G63A A77G,0.06
8,A18U A47U U49C A77C,0.09
9,A18U U31C U49G,0.16
10,A18U U25C U26C G70C U76A,0.08
11,A18U G33A A35U U58C U72C U76C U78C,0.05
12,A18U U25C A65C U74A,0.08
13,A18U U25C U26G U69G,0.34
14,A18U U25C A64G U72C,0.39
15,A18U U31C U43C A57G U66C,0.14
16,A18U C32U U67A,0.31
17,A18U U25C A45U U78C,0.57
18,A18U G19C U26C U72A,0.07
19,A18U C38G U60A C81U,0.21
20,A18U C40G A45G U78A,0.04
21,A18U U25C A64G,0.1

row,Variant,self-cleavage
1,A18U G22U G52C U72C,0.24
2,A18U U26C U48C U78C,0.29
3,A18U G30A U41A A57G C62G U74C C79A,0.07
4,A18U G19A A35C U43C U58C,0.11
5,A18U A64U U69G A75U U80A,0.36
6,A18U A57G A64G,0.2
7,A18U C23A G33A U60A,0.18
8,A18U G19A C68A,0.13
9,A18U A57G G61U U78A,0.15
10,A18U C23U U26C U43A,0.35
11,A18U A56G A57G,0.13
12,A18U U31A A45G,0.15
13,A18U U31C U41A U58C G73A A75G,0.06
14,A18U C27U A77G,0.2
15,A18U C38A U51A,0.19
16,A18U C32U U54C U72C,0.07
17,A18U A45G U66A U72A U76C U80C,0.11
18,A18U A45G U51A,0.27
19,A18U U26A A35U U41C,0.17
20,A18U A56U A64G A65G,0.18
21,A18U G30A A45U A64G,0.14

row,Variant,self-cleavage
1,A18U C38U U67C C71U,0.14
2,A18U A35U U43C U49C,0.05
3,A18U U31A U69A,0.53
4,A18U A56G C79A,0.37
5,A18U G19U A35U A56U U74C,0.12
6,A18U G24C U49C U72A,0.07
7,A18U A65G U78C,0.28
8,A18U U25C U31A U41A,0.19
9,A18U U25C A35U A47G U66C U67G,0.17
10,A18U G42U A45U,0.26
11,A18U U25C U41C,0.27
12,A18U U25C U41G,0.45
13,A18U U25A A65U G73A,0.29
14,A18U G19A U72C,0.42
15,A18U C34A C40U U54C U80C,0.07
16,A18U U25C U74A U80A,0.05
17,A18U U25G A45G U49C,0.15
18,A18U C34G U48C,0.2
19,A18U U26A U54C,0.2
20,A18U U25G A28G U43C U51C,0.28
21,A18U G24A A35U U67C U72C,0.06

row,Variant,self-cleavage
1,A18U C29A U31C A56G U66C U72C,0.14
2,A18U U26C A64G U66C U67C,0.06
3,A18U A47G A64G,0.15
4,A18U C40G U60C C62G,0.09
5,A18U U31A C68U U69A U80C,0.42
6,A18U U25C G30A C39A U74C A75G,0.09
7,A18U C29G U69C,0.17
8,A18U U25C U78C,0.32
9,A18U U26A A56G U74A,0.21
10,A18U U25C A45G A56C,0.38
11,A18U U26A A35U A47G A75C,0.14
12,A18U A57U U66C,0.11
13,A18U U31C U54C G73U,0.24
14,A18U C34U U41C G61A U69G C79U,0.08
15,A18U C27A A45U U66C,0.29
16,A18U G53A U54C,0.31
17,A18U U26C A45G A65G,0.07
18,A18U G22U U43A U49C U80A,0.29
19,A18U C23U G30A U31C U54C G55U,0.05
20,A18U A45U U72C U80C,0.35
